In the supplement of paper PMC10126150:
Sequences with one replicate were seen in a single cluster, so their values are uncertain.

Test system: ATP
Assay: switch fluorescence ratio, 500 uM ATP over buffer (Cy3 cluster intensity, sum of 5 cycles each) (fold (ratio)); higher = stronger signal-on switching upon ATP binding; sequences stand for … in TCGTCGGCAGCGTCAGATGTGTATAAGAGACAGTTTTTTTTTTTTTTTTTTTTTTTTT…TC
Conditions: aptamer strand: ATP DNA aptamer (quencher-CACCTGGGGGAGTATTGCGGAGGAAGG + anchor), 100 nM annealed; ATP concentration: 500 uM; one replicate
In short: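 Clusters with intensities outside 100-1000 RFU were excluded. The remaining Cy3-labelled switching-strand clusters on a modified Illumina MiSeq flow-cell had been annealed to 100 nM quencher-labelled ATP aptamer and imaged in selection buffer, then after 15 min with 500 uM ATP at 22 °C, for five cycles separated by NaOH stripping and re-annealing. The fluorescence ratio, averaged per switch-domain sequence, is each cluster's summed target-cycle Cy3 intensity over its summed buffer-cycle Cy3 intensity.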
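Note: ATP exposure 15 min at 22 °C before imaging.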

ATAGCTTTTT was tested, and the switch fluorescence ratio was 0.978.
TCAGATATGT was tested, and the switch fluorescence ratio was 1.04.
TGGTCGTAGC gave a switch fluorescence ratio of 0.954.
For TCGGGTACCG, the switch fluorescence ratio was 0.984.
For TTGGCCTGG, the switch fluorescence ratio was 0.965.
For GGGACAACCT, the switch fluorescence ratio was 1.41.
In the case of CGCTGGCGTG, the switch fluorescence ratio is reported as 0.993.
Sequence GTGTGCATC has a switch fluorescence ratio of 0.994.
GGAGAGGCTT was tested, and the switch fluorescence ratio was 0.963.
TTGGGAGAGT gave a switch fluorescence ratio of 0.979.
GTGGGTAAGC gave a switch fluorescence ratio of 1.01.
With GGTATGTCGC the switch fluorescence ratio was 1.08.
Work on TCTATCAGAG yielded a switch fluorescence ratio of 0.99.
Work on TACTAAAGG yielded a switch fluorescence ratio of 1.01.
With CTGCTACTTT the switch fluorescence ratio was 1.05.
For GAACGCCGGG, the switch fluorescence ratio was 1.03.
TCAGGTTATC showed a switch fluorescence ratio of 1.03.
AAGTCAGGCA gave a switch fluorescence ratio of 1.06.
TGTTTATCGT showed a switch fluorescence ratio of 1.08.
In the case of TGTGTTGAAG, the switch fluorescence ratio is reported as 0.956.
AGATTGCTTT showed a switch fluorescence ratio of 1.
Sequence GCGAGTTTAT has a switch fluorescence ratio of 0.99.
Sequence TGCTGTGCCG has a switch fluorescence ratio of 1.07.
Work on TGGTGTAACG yielded a switch fluorescence ratio of 1.03.
TTAATCCGCA gave a switch fluorescence ratio of 4.47.
Sequence TGACTAAAG has a switch fluorescence ratio of 1.03.
For CGTCGAGGGT, the switch fluorescence ratio was 0.96.
Sequence GCGGAATGAA has a switch fluorescence ratio of 1.01.
Work on GTTATCATCG yielded a switch fluorescence ratio of 0.975.
In the case of TAGTTGAGAT, the switch fluorescence ratio is reported as 1.02.
ATGTGGGACA showed a switch fluorescence ratio of 1.07.
GGCATCCTG was tested, and the switch fluorescence ratio was 0.967.
Work on CACTAAAATA yielded a switch fluorescence ratio of 1.09.
With CAGTAGTGG the switch fluorescence ratio was 1.01.
For CTGTAACTGG, the switch fluorescence ratio was 0.999.
CTGTTGAGAG was tested, and the switch fluorescence ratio was 0.974.
GGCACGTCAG was tested, and the switch fluorescence ratio was 1.01.
GGCTATTACT gave a switch fluorescence ratio of 1.17.
With TTACGATTTC the switch fluorescence ratio was 1.
Sequence TGATCCGCGG has a switch fluorescence ratio of 2.11.
In the case of ATTTCTGGGG, the switch fluorescence ratio is reported as 0.98.
TCCTATAAAT gave a switch fluorescence ratio of 1.
For GACGGCTAGC, the switch fluorescence ratio was 1.02.
Sequence GAGTGAGCCC has a switch fluorescence ratio of 0.925.
Work on TTAATTTGTA yielded a switch fluorescence ratio of 0.985.
In the case of AGCTGAGGT, the switch fluorescence ratio is reported as 0.975.
For AGCTTGAAAG, the switch fluorescence ratio was 0.967.
GCTTAAATGG gave a switch fluorescence ratio of 1.04.
ATCCGCGCCT gave a switch fluorescence ratio of 1.59.
AGTTAAGGCT showed a switch fluorescence ratio of 1.
CTTCGTGTTA was tested, and the switch fluorescence ratio was 1.04.
GCATCATCTC showed a switch fluorescence ratio of 1.03.
CTAGAAAGGT was tested, and the switch fluorescence ratio was 1.01.
Work on AGGAGTTAT yielded a switch fluorescence ratio of 0.952.
Work on GTTTAAAGGC yielded a switch fluorescence ratio of 1.02.
Sequence TAAATCAGCT has a switch fluorescence ratio of 0.998.
With AGCAAAGCGG the switch fluorescence ratio was 0.971.
In the case of CGAATGTTTT, the switch fluorescence ratio is reported as 1.
Work on CCGGTCTAGG yielded a switch fluorescence ratio of 1.05.
GAATATTATA was tested, and the switch fluorescence ratio was 1.01.
In the case of GACACGCCAT, the switch fluorescence ratio is reported as 1.27.
AGTTTTTG showed a switch fluorescence ratio of 0.99.
With AGGCTTCATG the switch fluorescence ratio was 1.03.
Sequence TGGATTGTCG has a switch fluorescence ratio of 1.11.
For CCTGAAGGTT, the switch fluorescence ratio was 1.04.
CCACTCATG gave a switch fluorescence ratio of 1.
TTGTCCTGGT showed a switch fluorescence ratio of 0.931.
Work on GCCCCAATTG yielded a switch fluorescence ratio of 1.07.
GTCAGGATAC showed a switch fluorescence ratio of 1.22.
TTTTTACGAC was tested, and the switch fluorescence ratio was 1.01.
ACTTGTGTCG showed a switch fluorescence ratio of 1.02.
GGCGATGGGA showed a switch fluorescence ratio of 1.04.
AGTGCCGCAT gave a switch fluorescence ratio of 1.07.
Work on CTCCGGGT yielded a switch fluorescence ratio of 1.42.
CCAGGGTTCC showed a switch fluorescence ratio of 1.02.
For TCAATATCGC, the switch fluorescence ratio was 1.02.
TGCATCTGT was tested, and the switch fluorescence ratio was 1.01.
Sequence GGGTGCGTAT has a switch fluorescence ratio of 0.948.
AGCGGACAGG gave a switch fluorescence ratio of 1.04.
In the case of AGAGATTATG, the switch fluorescence ratio is reported as 0.995.
For ACAAAACGGT, the switch fluorescence ratio was 1.06.
Sequence GAGGGACAGA has a switch fluorescence ratio of 1.01.
Work on CATCGCAGAG yielded a switch fluorescence ratio of 1.17.
TGCGGCGGCG showed a switch fluorescence ratio of 0.999.
Work on CAGCCTTCGC yielded a switch fluorescence ratio of 1.17.
For TTTGTACGT, the switch fluorescence ratio was 0.998.
TTGCATGATA was tested, and the switch fluorescence ratio was 1.03.
With GGACGAATGC the switch fluorescence ratio was 1.43.
In the case of AACCGTAACA, the switch fluorescence ratio is reported as 1.09.
With TAGGTTGAGA the switch fluorescence ratio was 1.02.
With GTAGGGACTG the switch fluorescence ratio was 0.976.
CTAGTACAAC was tested, and the switch fluorescence ratio was 1.02.
With GACTGCGACG the switch fluorescence ratio was 1.01.
TGGCTGAGAC showed a switch fluorescence ratio of 1.01.
Work on TAGTGCATAG yielded a switch fluorescence ratio of 0.976.
For CGTTTTTCCC, the switch fluorescence ratio was 1.04.
With AGGGTCGTGG the switch fluorescence ratio was 0.942.
AGTATGAT gave a switch fluorescence ratio of 1.01.
With GGTCTACTGG the switch fluorescence ratio was 1.01.
AATTGCCCTC gave a switch fluorescence ratio of 1.01.
ATCTAGAAAG was tested, and the switch fluorescence ratio was 1.03.
With TTACGGTTCG the switch fluorescence ratio was 1.06.
Sequence ATTGCTTTGC has a switch fluorescence ratio of 1.03.
Sequence CAGCAAAATT has a switch fluorescence ratio of 1.09.
AACCCCACGG was tested, and the switch fluorescence ratio was 1.46.
GTGTTGATGC gave a switch fluorescence ratio of 0.986.
In the case of TATAGTAACG, the switch fluorescence ratio is reported as 0.985.
TAAGCCTATC gave a switch fluorescence ratio of 1.11.
Work on CTAGTAGGAG yielded a switch fluorescence ratio of 0.986.
With TTTCGCTGAG the switch fluorescence ratio was 1.08.
Sequence CGAATTTCAG has a switch fluorescence ratio of 0.974.
CCGAAAAGGG showed a switch fluorescence ratio of 1.36.
For CACTGAGTAC, the switch fluorescence ratio was 0.968.
GGGAGGGAG was tested, and the switch fluorescence ratio was 0.997.
Work on GGAGTGCCAT yielded a switch fluorescence ratio of 1.01.
Sequence GCTGACCCGA has a switch fluorescence ratio of 1.13.
Sequence AAAGTGGGAA has a switch fluorescence ratio of 1.06.
For TGTAGCTAGT, the switch fluorescence ratio was 1.04.
GACAGGTAAT gave a switch fluorescence ratio of 0.993.
In the case of GTTGGCCACG, the switch fluorescence ratio is reported as 0.979.
For GCCAGGACGG, the switch fluorescence ratio was 0.9.
In the case of GCCAGGATTT, the switch fluorescence ratio is reported as 1.
Work on CTTAAGGTAC yielded a switch fluorescence ratio of 1.11.
For ACAACTGCAA, the switch fluorescence ratio was 1.39.
In the case of GAAATTTCAA, the switch fluorescence ratio is reported as 0.994.
For TAAAAAATAA, the switch fluorescence ratio was 0.983.
In the case of TCCTCGACCC, the switch fluorescence ratio is reported as 1.29.
With TTTTACTGGT the switch fluorescence ratio was 1.
Work on GCTACAATCG yielded a switch fluorescence ratio of 1.
CGCCCGGGTC gave a switch fluorescence ratio of 1.31.
In the case of TAACGAAATA, the switch fluorescence ratio is reported as 1.08.
TTTCAAACCA was tested, and the switch fluorescence ratio was 1.
For ACTGACTCT, the switch fluorescence ratio was 1.14.
CTGACCTCGC was tested, and the switch fluorescence ratio was 1.58.
Work on TCCCTTTTT yielded a switch fluorescence ratio of 1.06.
For AACATACGGG, the switch fluorescence ratio was 1.51.
In the case of AGTGGCGCGG, the switch fluorescence ratio is reported as 1.02.
Sequence GGCTTCATAT has a switch fluorescence ratio of 1.02.
Sequence CGGCACAAT has a switch fluorescence ratio of 1.2.
CAAGTTGCTA showed a switch fluorescence ratio of 1.01.
GATGTGGGCT was tested, and the switch fluorescence ratio was 0.988.
For CGGAAATTGC, the switch fluorescence ratio was 1.02.
With CTTTAATGAG the switch fluorescence ratio was 1.
ATCTGCTGGG was tested, and the switch fluorescence ratio was 1.02.
Work on TCATCTGAGC yielded a switch fluorescence ratio of 0.992.
CAGATGCTAA gave a switch fluorescence ratio of 1.02.
Work on TAAGCGAGAA yielded a switch fluorescence ratio of 1.03.
AGCTCGGGAA was tested, and the switch fluorescence ratio was 1.08.
For AAAAGGAATG, the switch fluorescence ratio was 1.01.
ATTCAACGAT showed a switch fluorescence ratio of 1.04.
In the case of ACATACCGC, the switch fluorescence ratio is reported as 1.29.
Sequence AATGAGTTCG has a switch fluorescence ratio of 1.
CTTTACATGA was tested, and the switch fluorescence ratio was 1.06.
AAGGTTCCTT showed a switch fluorescence ratio of 0.979.
CTTACGGGCG was tested, and the switch fluorescence ratio was 0.973.
Work on AGCCTTAAAC yielded a switch fluorescence ratio of 1.02.
With TGCCACATAT the switch fluorescence ratio was 1.03.
GCTGGAGTTA was tested, and the switch fluorescence ratio was 0.989.
With TGTGTTGACT the switch fluorescence ratio was 0.974.
With TGAGATTCTC the switch fluorescence ratio was 0.91.
GGGATGGTCT was tested, and the switch fluorescence ratio was 0.949.
With CACAAGGGTT the switch fluorescence ratio was 1.17.
In the case of TTGACCAACG, the switch fluorescence ratio is reported as 1.15.
In the case of GGGGTGCGCT, the switch fluorescence ratio is reported as 0.98.
ATCATTACGG was tested, and the switch fluorescence ratio was 1.01.
Sequence CCTATTGGAT has a switch fluorescence ratio of 1.01.
With TGTGGAAGCC the switch fluorescence ratio was 0.975.
For CCAGGTGGAA, the switch fluorescence ratio was 1.28.
For GATGCATCTG, the switch fluorescence ratio was 0.953.
Sequence TTATGTCCCG has a switch fluorescence ratio of 1.
GAATGATTAC gave a switch fluorescence ratio of 1.1.
TCGGAGGAGT showed a switch fluorescence ratio of 1.03.
For AACAATAGAT, the switch fluorescence ratio was 1.07.
GGGAATAGGT was tested, and the switch fluorescence ratio was 1.18.
With TGTTACTCCG the switch fluorescence ratio was 1.09.
Work on TAGATCGGC yielded a switch fluorescence ratio of 1.02.
CCCTGTCCCG was tested, and the switch fluorescence ratio was 1.06.
For AACGTCCGAG, the switch fluorescence ratio was 1.15.
With TGCCACTGAC the switch fluorescence ratio was 1.33.
With ACTCTATTCA the switch fluorescence ratio was 1.04.
Sequence TCGTCGATCA has a switch fluorescence ratio of 0.995.
GAGTCTAGAT showed a switch fluorescence ratio of 0.967.
Sequence ATTCGCTGAA has a switch fluorescence ratio of 1.05.
Sequence AATCCTTAGA has a switch fluorescence ratio of 0.99.
In the case of TATAGAGGGT, the switch fluorescence ratio is reported as 0.983.
AATCCCTT was tested, and the switch fluorescence ratio was 1.05.
With GCATGCTACC the switch fluorescence ratio was 1.18.
With AGTGGGGGCG the switch fluorescence ratio was 1.02.
Sequence TGAACAAGCA has a switch fluorescence ratio of 0.991.
With TCAGTCTTAC the switch fluorescence ratio was 0.99.
CCATGTAGTT was tested, and the switch fluorescence ratio was 0.943.
In the case of TACCCAGTTG, the switch fluorescence ratio is reported as 1.11.
TATATTGATG gave a switch fluorescence ratio of 0.976.
AGCGCGTTGA gave a switch fluorescence ratio of 1.09.
Sequence CAGAAACCGG has a switch fluorescence ratio of 1.01.
For CAAAATTGAT, the switch fluorescence ratio was 1.01.
Work on AGGGGGTCC yielded a switch fluorescence ratio of 0.974.
Work on AGGGGGG yielded a switch fluorescence ratio of 0.999.
For GTCGCGTCAG, the switch fluorescence ratio was 0.97.
Sequence TCGTGAGTTG has a switch fluorescence ratio of 0.975.
For AGCAAAATGC, the switch fluorescence ratio was 1.23.
